Laboratory results published in PMC9911399, “Two distinct binding modes provide the RNA-binding protein RbFox with extraordinary sequence specificity”.
Substitutions are numbered along the chain they refer to; changes in the protein carry UniProt numbers. This is one part of the list.

T1: RBFOX1 RRM (Homo sapiens, UniProt Q9NWB1 109-208)
T1 sequence: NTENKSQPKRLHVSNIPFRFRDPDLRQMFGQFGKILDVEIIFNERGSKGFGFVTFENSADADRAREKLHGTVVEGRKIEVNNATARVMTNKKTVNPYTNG

B1: ACUGUUU (DNA:RNA)
RNA: GGGAGACCGGAAUUCAGAUUGUCCACUGUUUUUAAAUCCCGUCGUAGCCACCA
DNA 1: CAATCTGAATTCCGGTCTCCC
DNA 2: TGGTGGCTACGACGGGATT
B2: AGAACGG (DNA:RNA)
RNA: B1 RNA with C26G, U27A, G28A, U29C, U30G, U31G
DNA 1: CAATCTGAATTCCGGTCTCCC
DNA 2: TGGTGGCTACGACGGGATT
B3: CGGGAAG (DNA:RNA)
RNA: B1 RNA with A25C, C26G, U27G, U29A, U30A, U31G
DNA 1: CAATCTGAATTCCGGTCTCCC
DNA 2: TGGTGGCTACGACGGGATT
B4: ACUGUCA (DNA:RNA)
RNA: B1 RNA with U30C, U31A
DNA 1: CAATCTGAATTCCGGTCTCCC
DNA 2: TGGTGGCTACGACGGGATT
B5: AUCUAAA (DNA:RNA)
RNA: B1 RNA with C26U, U27C, G28U, U29A, U30A, U31A
DNA 1: CAATCTGAATTCCGGTCTCCC
DNA 2: TGGTGGCTACGACGGGATT
B6: UCGAUGU (DNA:RNA)
RNA: B1 RNA with A25U, U27G, G28A, U30G
DNA 1: CAATCTGAATTCCGGTCTCCC
DNA 2: TGGTGGCTACGACGGGATT
B7: CUUACCC (DNA:RNA)
RNA: B1 RNA with A25C, C26U, G28A, U29C, U30C, U31C
DNA 1: CAATCTGAATTCCGGTCTCCC
DNA 2: TGGTGGCTACGACGGGATT
B8: UAUAAGA (DNA:RNA)
RNA: B1 RNA with A25U, C26A, G28A, U29A, U30G, U31A
DNA 1: CAATCTGAATTCCGGTCTCCC
DNA 2: TGGTGGCTACGACGGGATT
B9: UAAAUAA (DNA:RNA)
RNA: B1 RNA with A25U, C26A, U27A, G28A, U30A, U31A
DNA 1: CAATCTGAATTCCGGTCTCCC
DNA 2: TGGTGGCTACGACGGGATT
B10: UCAACAU (DNA:RNA)
RNA: B1 RNA with A25U, U27A, G28A, U29C, U30A
DNA 1: CAATCTGAATTCCGGTCTCCC
DNA 2: TGGTGGCTACGACGGGATT
B11: AACGAUU (DNA:RNA)
RNA: B1 RNA with C26A, U27C, U29A
DNA 1: CAATCTGAATTCCGGTCTCCC
DNA 2: TGGTGGCTACGACGGGATT
B12: UAGCCAU (DNA:RNA)
RNA: B1 RNA with A25U, C26A, U27G, G28C, U29C, U30A
DNA 1: CAATCTGAATTCCGGTCTCCC
DNA 2: TGGTGGCTACGACGGGATT
B13: UAAAGGG (DNA:RNA)
RNA: GGGAGACCGGAAUUCAGAUUGUCCUAAAGGGUUAAAUCCCGUCGUAGCCACCA
DNA 1: CAATCTGAATTCCGGTCTCCC
DNA 2: TGGTGGCTACGACGGGATT
B14: CAGGUAA (DNA:RNA)
RNA: B1 RNA with A25C, C26A, U27G, U30A, U31A
DNA 1: CAATCTGAATTCCGGTCTCCC
DNA 2: TGGTGGCTACGACGGGATT
B15: UCGGGAA (DNA:RNA)
RNA: B1 RNA with A25U, U27G, U29G, U30A, U31A
DNA 1: CAATCTGAATTCCGGTCTCCC
DNA 2: TGGTGGCTACGACGGGATT
B16: UUGUUUA (DNA:RNA)
RNA: B1 RNA with A25U, C26U, U27G, G28U, U31A
DNA 1: CAATCTGAATTCCGGTCTCCC
DNA 2: TGGTGGCTACGACGGGATT
B17: UUAAACA (DNA:RNA)
RNA: B13 RNA with A26U, G29A, G30C, G31A
DNA 1: CAATCTGAATTCCGGTCTCCC
DNA 2: TGGTGGCTACGACGGGATT
B18: GUAGAGG (DNA:RNA)
RNA: B13 RNA with U25G, A26U, A28G, G29A
DNA 1: CAATCTGAATTCCGGTCTCCC
DNA 2: TGGTGGCTACGACGGGATT
B19: AAGACAG (DNA:RNA)
RNA: B13 RNA with U25A, A27G, G29C, G30A
DNA 1: CAATCTGAATTCCGGTCTCCC
DNA 2: TGGTGGCTACGACGGGATT
B20: CCAGGGG (DNA:RNA)
RNA: B13 RNA with U25C, A26C, A28G
DNA 1: CAATCTGAATTCCGGTCTCCC
DNA 2: TGGTGGCTACGACGGGATT
B21: GCCGUAU (DNA:RNA)
RNA: B1 RNA with A25G, U27C, U30A
DNA 1: CAATCTGAATTCCGGTCTCCC
DNA 2: TGGTGGCTACGACGGGATT
B22: UAUACCU (DNA:RNA)
RNA: B13 RNA with A27U, G29C, G30C, G31U
DNA 1: CAATCTGAATTCCGGTCTCCC
DNA 2: TGGTGGCTACGACGGGATT
B23: CAUACGU (DNA:RNA)
RNA: B13 RNA with U25C, A27U, G29C, G31U
DNA 1: CAATCTGAATTCCGGTCTCCC
DNA 2: TGGTGGCTACGACGGGATT
B24: GUGAGCU (DNA:RNA)
RNA: B13 RNA with U25G, A26U, A27G, G30C, G31U
DNA 1: CAATCTGAATTCCGGTCTCCC
DNA 2: TGGTGGCTACGACGGGATT
B25: GAAAAUU (DNA:RNA)
RNA: B13 RNA with U25G, G29A, G30U, G31U
DNA 1: CAATCTGAATTCCGGTCTCCC
DNA 2: TGGTGGCTACGACGGGATT
B26: UUGUGGU (DNA:RNA)
RNA: B13 RNA with A26U, A27G, A28U, G31U
DNA 1: CAATCTGAATTCCGGTCTCCC
DNA 2: TGGTGGCTACGACGGGATT
B27: ACCACGU (DNA:RNA)
RNA: B1 RNA with U27C, G28A, U29C, U30G
DNA 1: CAATCTGAATTCCGGTCTCCC
DNA 2: TGGTGGCTACGACGGGATT
B28: CCUAGCU (DNA:RNA)
RNA: B1 RNA with A25C, G28A, U29G, U30C
DNA 1: CAATCTGAATTCCGGTCTCCC
DNA 2: TGGTGGCTACGACGGGATT
B29: AAUAAUG (DNA:RNA)
RNA: B1 RNA with C26A, G28A, U29A, U31G
DNA 1: CAATCTGAATTCCGGTCTCCC
DNA 2: TGGTGGCTACGACGGGATT
B30: ACCUCGG (DNA:RNA)
RNA: B1 RNA with U27C, G28U, U29C, U30G, U31G
DNA 1: CAATCTGAATTCCGGTCTCCC
DNA 2: TGGTGGCTACGACGGGATT
B31: CAGCCAU (DNA:RNA)
RNA: B1 RNA with A25C, C26A, U27G, G28C, U29C, U30A
DNA 1: CAATCTGAATTCCGGTCTCCC
DNA 2: TGGTGGCTACGACGGGATT

These binders were tested against T1, RBFOX1 RRM (assay: EMSA; HiTS-Eq, 1 nM pool, 10 min; buffer printed only for the single-RNA assays: 10 mM Tris pH 7.5, 150 mM NaCl, 3.4 mM EDTA, 0.001% NP-40, 30 C). Settings: tags: His6 N-terminal (pET28a); label: 5' 32P.
Method in brief: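 Purified RbFox RRM (wild type or mutant) was equilibrated for 10 min in 50 µL with 1 nM of a 5′-radiolabelled pool of RNA with 7 randomized nucleotides, its flanks annealed to DNA oligonucleotides, across increasing protein concentrations. Free RNA was separated by 8% native PAGE, excised, reverse-transcribed, PCR-barcoded and sequenced on an Illumina HiSeq 2500. Relative association constants came from read-count changes of each variant against the control reaction, normalised to the cognate motif.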

Binder | binding signal
B1 | 0.00717 KA relative to UGCAUGU
B2 | 0.0114 KA relative to UGCAUGU
B3 | 0.0198 KA relative to UGCAUGU
B4 | 0.00568 KA relative to UGCAUGU
B5 | 0.00231 KA relative to UGCAUGU
B6 | 0.0161 KA relative to UGCAUGU
B7 | 0.00105 KA relative to UGCAUGU
B8 | 0.00743 KA relative to UGCAUGU
B9 | 0.00303 KA relative to UGCAUGU
B10 | 0.0012 KA relative to UGCAUGU
B11 | 0.00375 KA relative to UGCAUGU
B12 | 0.00798 KA relative to UGCAUGU
B13 | 0.00447 KA relative to UGCAUGU
B14 | 0.00565 KA relative to UGCAUGU
B15 | 0.0104 KA relative to UGCAUGU
B16 | 0.012 KA relative to UGCAUGU

Binder | binding signal
B17 | 0.00267 KA relative to UGCAUGU
B18 | 0.0106 KA relative to UGCAUGU
B19 | 0.00411 KA relative to UGCAUGU
B20 | 0.00327 KA relative to UGCAUGU
B21 | 0.00914 KA relative to UGCAUGU
B22 | 0.001 KA relative to UGCAUGU
B23 | 0.00378 KA relative to UGCAUGU
B24 | 0.0163 KA relative to UGCAUGU
B25 | 0.00167 KA relative to UGCAUGU
B26 | 0.0188 KA relative to UGCAUGU
B27 | 0.00412 KA relative to UGCAUGU
B28 | 0.00722 KA relative to UGCAUGU
B29 | 0.00612 KA relative to UGCAUGU
B30 | 0.00718 KA relative to UGCAUGU
B31 | 0.00194 KA relative to UGCAUGU
